From PubChem BioAssay (NCI)
Where “and” joins values, the source holds several entries; their conditions need not be identical. Equal values may be shown once.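 How tested: cells in 96-well plates exposed to compound for 48 hours at five concentrations. GI50 = concentration required for 50% inhibition of growth. TGI marks complete inhibition of growth.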 Numbered stars: 1 amine (or outer) side, 2 acyl side, 3 side chain; on linkers, the order of the positions; unused ones are H or OH. Square brackets hold non-standard residues; d marks the D form. Peptide text beside a SMILES is read from it. * marks the point of attachment. X27 = CC(=O)N(C)SCC(N[*:1])C(=O)[*:2]; Cbz = O=C(OCc1ccccc1)*; Bn = c1ccc(C*)cc1; For = O=C*

tested on: NCI-H322M lung; test: growth of human tumour cells (NCI), 48 h

Structure (SMILES) | TGI | GI50
O=C1CCC2C(O)c3cc4c(cc3C(c3ccc5c(c3)OCO5)N12)OCO4 (configuration not stated) | > 100 µM | 
CN(C)CC/C(=N\Nc1ccc([N+](=O)[O-])cc1)c1ccccc1 | 28.9 µM | 
C=Cc1ccc(C)[n+](C[Si](C)(C)O[Si](C)(C)C)c1 | > 100 µM | 
COC(=O)N/N=C(\Cc1ccccc1)CN(C)C | > 100 µM | 
C=CCOc1cccc(C2(O)c3ccccc3C3=NCCCN32)c1 (configuration not stated) | > 44.1 µM | 
COc1ccc(-c2nc(-c3nc4ccc(OC)cc4[nH]3)c3ccccn23)cc1 | 10.6 µM | 3.22 µM
Oc1ccccc1/C=C/c1csnn1 | > 100 µM | 
COc1cc2c(oc(=O)c3c4oc([Si](C)(C)C)cc4cc(OC)c23)c2cccc(OCc3ccccc3)c12 | > 84.2 µM | 
CN(CCCCCl)P(=O)(OCc1ccc([N+](=O)[O-])o1)OC[C@H]1O[C@@H](n2cc(F)c(=O)[nH]c2=O)C[C@@H]1O (some centres not stated) | 59.4 µM | 
O=C([O-])C[n+]1ccccc1 | > 100 µM | 
COc1ccc2nc3cccc([N+](=O)[O-])c3c(NCCCCCC(=O)O)c2c1 | 4.19 µM | 0.368 µM
COc1cc(OC(=O)c2ccccc2)cc2c1C(=O)C=CC2=O | 44.8 µM | 
CCN(CC)CCCC(C)Nc1ccnc2cc(Oc3ccccc3)ccc12 (configuration not stated) | 17.1 µM and 79.4 µM | 5.63 µM and 22.6 µM
COc1cc(C(=O)O[C@H](C(=O)NCCCCCNC(=O)[C@@H](OC(=O)c2cc(OC)cc3c(C)cccc23)[C@]2(C)CO2)[C@]2(C)CO2)c2cccc(C)c2c1 | 2.59 µM | 0.971 µM
OC1(c2cccs2)c2cccc(Cl)c2C(O)(c2cccs2)c2c(Cl)cccc21 (configuration not stated) | > 100 µM | 
Nc1c(C(=O)c2cccc(-c3ccncc3)c2)cnn1-c1ccc(F)cc1F | > 25 µM | > 19.2 µM
COC1=C(OC)C(=O)C(Cc2c(Cl)nc3sc(C)cn23)=C(C)C1=O | 34.7 µM | 
O=C1c2ccccc2C(O)(O)C1(O)C1(O)C(=O)c2ccccc2C1(O)O (configuration not stated) | > 100 µM | 
Cc1nn2c(/C=C3\C(=O)Nc4ccc(Cl)cc43)c(C)nc2s1 | > 100 µM | > 100 µM
Cc1ccc(S(=O)(=O)N/N=C/c2c(O)ccc3ccccc23)cc1 | 85.4 µM | 
COC(=O)c1nc(-c2ccccc2)oc1S(=O)(=O)Cc1ccccc1 | 29.4 µM | 15.9 µM
Fc1ccc2c(c1)C1=NN(c3ccccc3)C(F)C1CO2 (configuration not stated) | 32.2 µM | 10.5 µM
O=[N+]([O-])c1cc(C(F)(F)F)cc([N+](=O)[O-])c1CCl | 10 µM | 
CCOC(=O)c1cccn1S(=O)(=O)c1cc(Cl)ccc1NC(=O)CC | > 100 µM | 

Structure (SMILES) | TGI | GI50
CCOc1ccc(NC(=O)C(=O)CC(=O)c2sc(NNC(C)=O)nc2C)cc1 | > 100 µM | 
CN(C)CCN1C(=O)c2ccccc2N(C)c2ccccc21 | > 100 µM | > 100 µM
O=S1(=O)N=C(SCc2ccccc2)N(c2ccccc2)c2ccncc21 | > 100 µM | 
CC1=NN(C(=O)c2ccccc2O)C(=O)/C1=C/c1ccco1 | > 100 µM | 
CC(C)OC(=O)c1ccc(NCc2cc(O)ccc2O)cc1Cl | > 100 µM | 
Cc1cccc(C)c1NC(=O)C(C#N)C1=C(Cl)C(=O)c2ccccc2C1=O (configuration not stated) | 30.2 µM | 
NN(CC(=O)O)CC(=O)O | > 100 µM | 
O=C(O)C(/C=C/c1ccccc1)c1ccccc1 (configuration not stated) | > 100 µM | 
C[C@]12CCC(=O)C=C1CC[C@@H]1[C@@H]2CC[C@]2(C)C(=O)NC(=O)C[C@@H]12 | > 100 µM | 
COc1ccc2cc(C(=O)/C=C/c3ccc(Cl)cc3Cl)ccc2c1 | > 100 µM | 31.4 µM
CCOC(=O)/C(C#N)=C\c1ccc(N(CCC(=O)O)CCC(=O)O)c(I)c1 | > 10 µM | 
COc1cc(/C=C/C(=O)c2cccc(Nc3nc(Nc4ccccc4)nc(Nc4ccccc4)n3)c2)cc(OC)c1OC | > 100 µM | > 69.5 µM
C/C(CC(=O)Nc1ccc([N+](=O)[O-])cc1)=N\NC(N)=O | > 100 µM | 
O=C(CCCCCCCCC(=O)N/N=C\c1ccccc1O)N/N=C\c1ccccc1O | 30.2 µM | 0.239 µM
O=[N+]([O-])O.[Cu+2].[NH-]CC[NH-].[NH-]CC[NH-] | > 10 µM | > 10 µM
COc1cc2c(c(OC)c1OC)-c1ccc(SC)c(=O)cc1C(CO)C2 (configuration not stated) | 0.822 µM | 
C[C@]12C=CC(=O)C=C1CC[C@@H]1[C@@H]2CC[C@]2(C)OC(=O)CC[C@@H]12 | > 471 µM | 
COC(=O)C(=O)C(C(=O)C(=O)Nc1ccc(F)cc1)c1nc2ccc([N+](=O)[O-])cc2[nH]c1=O (configuration not stated) | > 100 µM | 
COc1cc2ccc(/C=C\[N+](=O)[O-])cc2cc1OC | 27.6 µM | 
O=C(O)C(SC(=S)c1ccc(C(=S)SC(C(=O)O)c2ccccc2)cc1)c1ccccc1 (configuration not stated) | > 100 µM | 
Cc1ccc(S(=O)(=O)n2cc(-c3cc(C(F)(F)F)ccn3)c3cc(Br)ccc32)cc1 | 78.4 µM | 
C=C1C(=O)O[C@H]2[C@H]1CC/C(COC(=O)NCc1cn(C)c3ccccc13)=C\CC[C@@]1(C)O[C@@H]21 | 13.7 µM | 3.05 µM
CN1CCc2[nH]c3ccccc3c2C1 | > 100 µM | 
COc1cc(CSc2nc3ccc(C)cc3c(=O)n2-c2ccccc2)cc(OC)c1OC | > 100 µM | 19.2 µM

Structure (SMILES) | TGI | GI50
O=C(CN1CCCCC1)Nc1ccc2sc3ccccc3c(=O)c2n1 | 43.8 µM | 
C1=NCCN2CCN(CCN=Cc3ccc(cc3)OCc3cccc(n3)COc3ccc1cc3)CC2 | > 50 µM | 
c1ccc2[nH]c(-c3ccc(-c4nccc5c4[nH]c4ccccc45)cc3)nc2c1 | 8.9 µM | 2.86 µM
CCN(CC)CCCCNc1c2ccccc2[n+](C)c2c1[nH]c1ccccc12 | 4.87 µM | 0.328 µM
CCOC(=O)N1CCN(C=S)CC1 | > 100 µM | 
CC(=O)C(=C(c1ccccc1)c1ccccc1)c1ccccc1 | > 100 µM | 
COc1cc2c(c(O)c1OC)-c1c(cc(OC)c(OC)c1OC)CC(C)C(C)C2 (configuration not stated) | > 100 µM | 
CC(C)Cn1cnc2c(NCC(C)O)nc3ccccc3c21 (configuration not stated) | > 100 µM | 
CCOc1ccccc1N1C(=O)C(=O)C(c2nc3ccccc3o2)C(=O)C1=O | > 100 µM | 
CP1(=O)CCCCC1 | > 100 µM | 
COC(=O)C1(CCC(C)=O)CCCCCC1=O (configuration not stated) | > 100 µM | 
O=C1Nc2ccccc2/C1=C/C(=O)c1coc2c1C(=O)c1ccccc1C2=O | > 100 µM | > 100 µM
Cc1cc2ccccc2n2c1nc1ccccc12 | > 100 µM | 
C=CCN1C(=O)/C(=C/c2ccco2)N=C1SC/C=C/C | > 100 µM | 
COc1c(C)c2c(c(O)c1C/C=C(\C)CCC(=O)O)C(=O)OC2 | > 100 µM | 0.5 µM
CN(C)CCCSc1nc2ccccc2[nH]1 | > 100 µM | 
CCN(CC)c1c(C(=O)/C=C/c2ccc(OC)cc2)c(-c2ccccc2)nn(C)c1=O | 44.7 µM | 
CNc1ncnc2c1ncn2C1C=CC(COS(N)(=O)=O)C1 (configuration not stated) | > 100 µM | 
COc1ccc(C(=O)OC2C(OC3C(O)COC(O[C@H]4C[C@H]5[C@@H]6CC=C7C[C@@H](O)CC[C@]7(C)[C@H]6CC[C@]5(C)[C@H]4[C@H](C)C(=O)CCC(C)C)C3OC(N)=O)OCC(O)C2O)cc1 (some centres not stated) | 6.3 µM | 1.71 µM
COc1ccc(Nc2nnc(-c3nsc4ccccc34)s2)cc1 | > 100 µM | 
C=C(C)C1=CCC[C@]2(C1)N=C(OC)[C@@H](C(C)C)N=C2OC | > 100 µM | 
CCc1c2c([nH]c(=S)c1C#N)CCC2 | > 100 µM | 
CC(=O)N(C)SCC(NC(=O)C(Cc1ccccc1)NC(=O)OCc1ccccc1)C(=O)NC(Cc1ccccc1)C(=O)NC(Cc1cn(C=O)c2ccccc12)C(=O)NC(CCCCNC(=O)OCc1ccccc1)C(=O)NC(C(=O)NC(CSN(C)C(C)=O)C(=O)NC(C(N)=O)C(C)OCc1ccccc1)C(C)OCc1ccccc1 (configuration not stated) (Cbz-F[X27]FW(For)K(Cbz)T(Bn)[X27]T(Bn)-NH2; configuration not given here) | > 100 µM | 
CC(=O)CC(=O)OC1CC(C)CCC1C(C)C (configuration not stated) | > 100 µM | 

Structure (SMILES) | TGI | GI50
C[N+](C)(C)CC(=O)N/N=C/c1oc(-c2c(O)ccc3ccccc23)c(-c2c(O)ccc3ccccc23)c1[N+](=O)[O-] | 61.4 µM | 
Cc1c(C(N)=O)sc2c1C(=O)N(Cc1ccccc1)C1=NN=C(c3ccc(Cl)cc3)CN12 | 17.5 µM | 2.96 µM
O=C(Nc1ccc(Cl)cc1)c1cc2cc(N=Nc3ccccc3Cl)ccc2oc1=O | 54 µM | 
CCCCNc1nc(C#N)c(N)s1 | > 100 µM | 
C(#Cc1ccccc1C#Cc1cccs1)c1cccs1 | > 100 µM | 94.3 µM
Cc1csc2[n+]1C(=O)/C(=C\c1ccc([N+](=O)[O-])cc1)S2 | > 100 µM | 
O=C(Nc1ccc(Cl)cc1)NS(=O)(=O)c1coc2cc(F)ccc2c1=O | > 100 µM | 
Cc1cc(=O)n(-c2ccccc2C)c(C)n1 | > 100 µM | 
CN(CCCn1c2c(c3ccccc3c1=O)C(=O)c1ccccc1-2)CCCn1c2c(c3ccccc3c1=O)C(=O)c1ccccc1-2 | 15 µM | 0.661 µM
O=C1/C(=C/c2cccc(Br)c2)CCc2ccccc21 | 32.4 µM | 
O=c1oc2ccc3ccccc3c2cc1-c1cn2ccccc2n1 | > 100 µM | 
CC(C)=CCC/C(C)=C/CC/C(C)=C/CC/C(C)=C/C=C/C=C(\C)CC/C=C(\C)CC/C=C(\C)CCC=C(C)C | > 100 µM | 
CCc1n[nH]c(=O)n1/N=C/c1c(O)ccc2ccccc12 | > 100 µM | 
O=C1c2cc(Cl)ccc2-n2cnnc2C2CSCN12 (configuration not stated) | > 100 µM | 
O=c1[nH]c2cc([N+](=O)[O-])ccc2nc1/C(=N/Nc1ccccc1)C(O)c1ccccc1Cl (configuration not stated) | > 100 µM | 
CS(=O)(=O)c1nc(-c2cc3c(c(S(C)(=O)=O)n2)CCC3)cc2c1CCCCC2 | > 100 µM | 
CCCCCCCCCCCCCCCCCCNc1ccn(C2OC(COP(=O)(O)OCC3OC(n4cc(F)c(=O)[nH]c4=O)CC3O)C(O)C2O)c(=O)n1 (configuration not stated) | > 100 µM | 
COc1ccc(-c2cc(=O)[nH]c3c(OC)c4ccccc4c(OC)c23)cc1 | > 100 µM | > 25.1 µM
COc1ccc2[nH]cc(CCNC(=O)[C@H](Cc3ccccc3)NC(=O)[C@@H](NCC(F)(F)F)C(C)C)c2c1 | 61.6 µM | 
CNc1ccc(C(=O)CC(O)CCC(C)C2OC(=O)CC(O)CC(=O)CC(O)CC(O)CC(O)CC(O)CC3(O)CC(O)C(C(=O)N4CCOCC4)C(CC(OC4OC(C)C(O)C(N)C4O)/C=C/C=C/C=C/C=C\C=C/C=C/C=C/C2C)O3)cc1 (configuration not stated) | 0.54 µM | 
C=CCN1C(=O)/C(=C/c2ccc(OC)cc2)N=C1SC/C=C/C | > 100 µM | 
COc1cc(NC(C)CCCNC2CN3CCC2CC3)c2ncccc2c1 (configuration not stated) | 25.5 µM | 12.4 µM
CCCCCCCCCCCCCCCCCCOc1ccccc1CC(=O)OCC[N+]1(C)CCCCC1 | 22.2 µM | 5.78 µM
Cc1cc2c(cc1-c1cc3c(cc1C)C(C(C)C)=C(O)C(=O)/C3=C\Nc1c3ccccc3nc3ccccc13)/C(=C/Nc1c3ccccc3nc3ccccc13)C(=O)C(O)=C2C(C)C | 16.5 µM | 
